T1: VEGF (UniProt P15692-4 27-191)
T1 construct: Bought reagent; also called vascular endothelial growth factor
T1 sequence (looked up): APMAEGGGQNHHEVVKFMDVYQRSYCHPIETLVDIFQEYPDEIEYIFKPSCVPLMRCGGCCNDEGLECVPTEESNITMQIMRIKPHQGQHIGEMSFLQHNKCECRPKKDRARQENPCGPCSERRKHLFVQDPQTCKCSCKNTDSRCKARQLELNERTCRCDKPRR


Tests used:
[1] = biological target: T2, DLL4 (DLL ECD His tag, R&D 1506-D4-050) (UniProt Q9NR61 partial chain); test: BIACORE (SPR), DVD-Ig against DLL4
T2 construct: extracellular domain; bought

VEGF = biological target: T1, VEGF; test: BIACORE SPR

Binder | Kd [1] [pM] | koff [1] [s⁻¹] | kon [1] [M⁻¹ s⁻¹] | Kd (VEGF) [pM] | koff (VEGF) [s⁻¹] | kon (VEGF) [M⁻¹ s⁻¹]
DVD499 (bispecific antibody, human IgG1, kappa, DVD-Ig; N-term; VD DLL4 (AB072), C-term; VD VEGF (AB014); HC linker long, LC linker short; also called DVD-Ig DVD499; DVD499H) heavy: EVQLQQSGPELVKPGASVKMSCKASGYTFTSYVINWVKQKPGQGLEWIGLINPYNDGTKYNEKFKVKATLTSDKSSSTAYMELSSLTSEDSAVYYCASYYYGSRYYFDYWGQGTTLTVSSASTKGPSVFPLAPEVQLVESGGGLVQPGGSLRLSCAASGYTFTNYGMNWVRQAPGKGLEWVGWINTYTGEPTYAADFKRRFTFSLDTSKSTAYLQMNSLRAEDTAVYYCAKYPHYYGSSHWYFDVWGQGTLVTVSS[omitted - human IgG1 constant region] light: DIQMTQSSSYLSVSLGGRVTITCKASDHINNWLAWYQQKPGNAPRLLISGATSLETGVPSRFSGSGSGKDYTLSITSLQTEDVATYYCQQYWSIPLTFGAGTKLELKRTVAAPDIQMTQSPSSLSASVGDRVTITCSASQDISNYLNWYQQKPGKAPKVLIYFTSSLHSGVPSRFSGSGSGTDFTLTISSLQPEDFATYYCQQYSTVPWTFGQGTKVEIKRTVAAPSVFIFPPSDEQLKSGTASVVCLLNNFYPREAKVQWKVDNALQSGNSQESVTEQDSKDSTYSLSSTLTLSKADYEKHKVYACEVTHQGLSSPVTKSFNRGEC | 295 | 8.01e-05 | 271000 | – | – | –
DVD475 (bispecific antibody, human IgG1, kappa, DVD-Ig; N-term; AB015 (DLL4), C-term; AB014 (VEGF); HC linker long, LC linker short; also called DVD475H; DVD475L) heavy: EVQLVESGGGLVQPGGSLRLSCAASGFTFTDNWISWVRQAPGKGLEWVGYISPNSGFTYYADSVKGRFTISADTSKNTAYLQMNSLRAEDTAVYYCARDNFGGYFDYWGQGTLVTVSSASTKGPSVFPLAPEVQLVESGGGLVQPGGSLRLSCAASGYTFTNYGMNWVRQAPGKGLEWVGWINTYTGEPTYAADFKRRFTFSLDTSKSTAYLQMNSLRAEDTAVYYCAKYPHYYGSSHWYFDVWGQGTLVTVSS[omitted - human IgG1 constant region] light: DIQMTQSPSSLSASVGDRVTITCRASQDVSTAVAWYQQKPGKAPKLLIYSASFLYSGVPSRFSGSGSGTDFTLTISSLQPEDFATTYYCQQSYTGTVTFGQGTKVEIKRTVAAPDIQMTQSPSSLSASVGDRVTITCSASQDISNYLNWYQQKPGKAPKVLIYFTSSLHSGVPSRFSGSGSGTDFTLTISSLQPEDFATYYCQQYSTVPWTFGQGTKVEIKRTVAAPSVFIFPPSDEQLKSGTASVVCLLNNFYPREAKVQWKVDNALQSGNSQESVTEQDSKDSTYSLSSTLTLSKADYEKHKVYACEVTHQGLSSPVTKSFNRGEC | – | – | – | 838 | 0.00024 | 286000
DVD481 (bispecific antibody, human IgG1, kappa, DVD-Ig; N-term; AB015 (DLL4), C-term; AB014 (VEGF); HC linker short, LC linker long; also called DVD481H; DVD481L) heavy: EVQLVESGGGLVQPGGSLRLSCAASGFTFTDNWISWVRQAPGKGLEWVGYISPNSGFTYYADSVKGRFTISADTSKNTAYLQMNSLRAEDTAVYYCARDNFGGYFDYWGQGTLVTVSSASTKGPEVQLVESGGGLVQPGGSLRLSCAASGYTFTNYGMNWVRQAPGKGLEWVGWINTYTGEPTYAADFKRRFTFSLDTSKSTAYLQMNSLRAEDTAVYYCAKYPHYYGSSHWYFDVWGQGTLVTVSS[omitted - human IgG1 constant region] light: DIQMTQSPSSLSASVGDRVTITCRASQDVSTAVAWYQQKPGKAPKLLIYSASFLYSGVPSRFSGSGSGTDFTLTISSLQPEDFATTYYCQQSYTGTVTFGQGTKVEIKRTVAAPSVFIFPPDIQMTQSPSSLSASVGDRVTITCSASQDISNYLNWYQQKPGKAPKVLIYFTSSLHSGVPSRFSGSGSGTDFTLTISSLQPEDFATYYCQQYSTVPWTFGQGTKVEIKRTVAAPSVFIFPPSDEQLKSGTASVVCLLNNFYPREAKVQWKVDNALQSGNSQESVTEQDSKDSTYSLSSTLTLSKADYEKHKVYACEVTHQGLSSPVTKSFNRGEC | – | – | – | 1200 | 0.000573 | 476000
DVD441 (bispecific antibody, human IgG1, kappa, DVD-Ig; N-term; AB069 (DLL4), C-term; AB014 (VEGF); HC linker short, LC linker short; also called DVD441H; DVD441L) heavy: QVQLVQSGAEVKKPGASVKISCKASGYSFTAYYIHWVKQAPGQGLEWIGYISSYNGATNYNQKFKGRVTFTTDTSTSTAYMELRSLRSDDTAVYYCARDYDYDVGMDYWGQGTLVTVSSASTKGPEVQLVESGGGLVQPGGSLRLSCAASGYTFTNYGMNWVRQAPGKGLEWVGWINTYTGEPTYAADFKRRFTFSLDTSKSTAYLQMNSLRAEDTAVYYCAKYPHYYGSSHWYFDVWGQGTLVTVSS[omitted - human IgG1 constant region] light: DIVMTQSPDSLAVSLGERATISCRASESVDNYGISFMKWFQQKPGQPPKLLIYAASNQGSGVPDRFSGSGSGTDFTLTISSLQAEDVAVYYCQQSKEVPWTFGGGTKVEIKRTVAAPDIQMTQSPSSLSASVGDRVTITCSASQDISNYLNWYQQKPGKAPKVLIYFTSSLHSGVPSRFSGSGSGTDFTLTISSLQPEDFATYYCQQYSTVPWTFGQGTKVEIKRTVAAPSVFIFPPSDEQLKSGTASVVCLLNNFYPREAKVQWKVDNALQSGNSQESVTEQDSKDSTYSLSSTLTLSKADYEKHKVYACEVTHQGLSSPVTKSFNRGEC | – | – | – | 558 | 7.43e-05 | 133000
DVD447 (bispecific antibody, human IgG1, kappa, DVD-Ig; N-term; AB069 (DLL4), C-term; AB014 (VEGF); HC linker long, LC linker long; also called DVD447H; DVD447L) heavy: QVQLVQSGAEVKKPGASVKISCKASGYSFTAYYIHWVKQAPGQGLEWIGYISSYNGATNYNQKFKGRVTFTTDTSTSTAYMELRSLRSDDTAVYYCARDYDYDVGMDYWGQGTLVTVSSASTKGPSVFPLAPEVQLVESGGGLVQPGGSLRLSCAASGYTFTNYGMNWVRQAPGKGLEWVGWINTYTGEPTYAADFKRRFTFSLDTSKSTAYLQMNSLRAEDTAVYYCAKYPHYYGSSHWYFDVWGQGTLVTVSS[omitted - human IgG1 constant region] light: DIVMTQSPDSLAVSLGERATISCRASESVDNYGISFMKWFQQKPGQPPKLLIYAASNQGSGVPDRFSGSGSGTDFTLTISSLQAEDVAVYYCQQSKEVPWTFGGGTKVEIKRTVAAPSVFIFPPDIQMTQSPSSLSASVGDRVTITCSASQDISNYLNWYQQKPGKAPKVLIYFTSSLHSGVPSRFSGSGSGTDFTLTISSLQPEDFATYYCQQYSTVPWTFGQGTKVEIKRTVAAPSVFIFPPSDEQLKSGTASVVCLLNNFYPREAKVQWKVDNALQSGNSQESVTEQDSKDSTYSLSSTLTLSKADYEKHKVYACEVTHQGLSSPVTKSFNRGEC | – | – | – | 159 | 4.76e-05 | 299000

The remaining lines, values ahead:

Kd [1] [pM] | koff [1] [s⁻¹] | kon [1] [M⁻¹ s⁻¹] | Kd (VEGF) [pM] | koff (VEGF) [s⁻¹] | kon (VEGF) [M⁻¹ s⁻¹] | Binder
137 | 4e-05 | 292000 | – | – | – | DVD493 (bispecific antibody, human IgG1, kappa, DVD-Ig; N-term; VD DLL4 (AB072), C-term; VD VEGF (AB014); HC linker long, LC linker long; also called DVD-Ig DVD493; DVD493H) heavy: EVQLQQSGPELVKPGASVKMSCKASGYTFTSYVINWVKQKPGQGLEWIGLINPYNDGTKYNEKFKVKATLTSDKSSSTAYMELSSLTSEDSAVYYCASYYYGSRYYFDYWGQGTTLTVSSASTKGPSVFPLAPEVQLVESGGGLVQPGGSLRLSCAASGYTFTNYGMNWVRQAPGKGLEWVGWINTYTGEPTYAADFKRRFTFSLDTSKSTAYLQMNSLRAEDTAVYYCAKYPHYYGSSHWYFDVWGQGTLVTVSS[omitted - human IgG1 constant region] light: DIQMTQSSSYLSVSLGGRVTITCKASDHINNWLAWYQQKPGNAPRLLISGATSLETGVPSRFSGSGSGKDYTLSITSLQTEDVATYYCQQYWSIPLTFGAGTKLELKRTVAAPSVFIFPPDIQMTQSPSSLSASVGDRVTITCSASQDISNYLNWYQQKPGKAPKVLIYFTSSLHSGVPSRFSGSGSGTDFTLTISSLQPEDFATYYCQQYSTVPWTFGQGTKVEIKRTVAAPSVFIFPPSDEQLKSGTASVVCLLNNFYPREAKVQWKVDNALQSGNSQESVTEQDSKDSTYSLSSTLTLSKADYEKHKVYACEVTHQGLSSPVTKSFNRGEC
153 | 4.02e-05 | 262000 | – | – | – | DVD505 (bispecific antibody, human IgG1, kappa, DVD-Ig; N-term; VD DLL4 (AB072), C-term; VD VEGF (AB014); HC linker short, LC linker long; also called DVD-Ig DVD505; DVD505H) heavy: EVQLQQSGPELVKPGASVKMSCKASGYTFTSYVINWVKQKPGQGLEWIGLINPYNDGTKYNEKFKVKATLTSDKSSSTAYMELSSLTSEDSAVYYCASYYYGSRYYFDYWGQGTTLTVSSASTKGPEVQLVESGGGLVQPGGSLRLSCAASGYTFTNYGMNWVRQAPGKGLEWVGWINTYTGEPTYAADFKRRFTFSLDTSKSTAYLQMNSLRAEDTAVYYCAKYPHYYGSSHWYFDVWGQGTLVTVSS[omitted - human IgG1 constant region] light: DIQMTQSSSYLSVSLGGRVTITCKASDHINNWLAWYQQKPGNAPRLLISGATSLETGVPSRFSGSGSGKDYTLSITSLQTEDVATYYCQQYWSIPLTFGAGTKLELKRTVAAPSVFIFPPDIQMTQSPSSLSASVGDRVTITCSASQDISNYLNWYQQKPGKAPKVLIYFTSSLHSGVPSRFSGSGSGTDFTLTISSLQPEDFATYYCQQYSTVPWTFGQGTKVEIKRTVAAPSVFIFPPSDEQLKSGTASVVCLLNNFYPREAKVQWKVDNALQSGNSQESVTEQDSKDSTYSLSSTLTLSKADYEKHKVYACEVTHQGLSSPVTKSFNRGEC
– | – | – | 455 | 0.0151 | 3.31e+07 | DVD469 (bispecific antibody, human IgG1, kappa, DVD-Ig; N-term; AB015 (DLL4), C-term; AB014 (VEGF); HC linker long, LC linker long; also called DVD469H; DVD469L) heavy: EVQLVESGGGLVQPGGSLRLSCAASGFTFTDNWISWVRQAPGKGLEWVGYISPNSGFTYYADSVKGRFTISADTSKNTAYLQMNSLRAEDTAVYYCARDNFGGYFDYWGQGTLVTVSSASTKGPSVFPLAPEVQLVESGGGLVQPGGSLRLSCAASGYTFTNYGMNWVRQAPGKGLEWVGWINTYTGEPTYAADFKRRFTFSLDTSKSTAYLQMNSLRAEDTAVYYCAKYPHYYGSSHWYFDVWGQGTLVTVSS[omitted - human IgG1 constant region] light: DIQMTQSPSSLSASVGDRVTITCRASQDVSTAVAWYQQKPGKAPKLLIYSASFLYSGVPSRFSGSGSGTDFTLTISSLQPEDFATTYYCQQSYTGTVTFGQGTKVEIKRTVAAPSVFIFPPDIQMTQSPSSLSASVGDRVTITCSASQDISNYLNWYQQKPGKAPKVLIYFTSSLHSGVPSRFSGSGSGTDFTLTISSLQPEDFATYYCQQYSTVPWTFGQGTKVEIKRTVAAPSVFIFPPSDEQLKSGTASVVCLLNNFYPREAKVQWKVDNALQSGNSQESVTEQDSKDSTYSLSSTLTLSKADYEKHKVYACEVTHQGLSSPVTKSFNRGEC

From patent US20100260668A1 (published 2010)
